Laboratory results as given in PubChem BioAssay AID686978 (National Center for Advancing Translational Sciences (NCATS), 2013).
Screen size: about 420,000 compounds; about 64,000 (15%) were called active. The shares of active, inactive and inconclusive entries below differ from those in the screen. Calls come from the whole dose curve; as a rule, active = well fitted inhibition curve with a large enough effect; inconclusive = small, poorly fitted or top-dose-only effect; inactive = flat fitted curve, though single readings scatter. No potency is given beside an inconclusive call; the fits are too rough.
% is set by controls: 0 for no effect and ±100 for the full control effect; potency is the fitted concentration of half-maximal effect; tags give direction and shape of the fitted curve.

Test: qHTS for Inhibitors of human tyrosyl-DNA phosphodiesterase 1 (TDP1): qHTS in cells in absence of CPT; note: nearly all actives have a fitted effect of over 55% in size
Settings: DT40 Tdp1-/- hTDP1 cells, no CPT, ATP luminescence, 48 h; activity change, negative = growth inhibition: at 46.2 µM (top of the series) unless noted
Summary of the method: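 Seeded 400 DT40-hTDP1 cells/well (vehicle DMSO, no 20 nM CPT); pinned compounds; ≥48 hr at 37 °C; CellTiter-Glo luminescence as viability measure.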
With `O=C(NCc1ccco1)C1(S(=O)(=O)c2ccccc2)CC=CC1` the “activity change, negative = growth inhibition” value was inactive: -15.2%.
With `CCC(C)(c1ccc(C=O)s1)c1ccc(C=O)s1` the Potency was inconclusive [inhibitor, single point].
For `COc1ccc(Cl)cc1C(=O)NC(=S)Nc1nc(C)cc(C)n1`, the “activity change, negative = growth inhibition” value was inactive: -19.3%.
For `Cc1ccc(CSCC(=O)N/N=C/c2cccc(OC3CSC3)c2)cc1`, the Potency was inconclusive [inhibitor, single point].
For `C/C(=N\NC(=O)c1cccc(N/N=C(\C)c2ccncc2)c1)c1ccncc1`, the Potency was inconclusive [inhibitor, partial curve].
In the case of `CC(C)NC(=O)c1ccc(CN2CCc3ccccc3C2)cc1`, the Potency is reported as inconclusive [inhibitor, single point].
With `COCCNCc1ccccc1` the Potency was inconclusive [inhibitor, single point].
For `CCOC(=O)N1CCN(C(=O)c2cnn3c(C)c(Cc4ccc(C)cc4)c(C)nc23)CC1`, the Potency was inconclusive [inhibitor, partial curve].
For `COc1cc([C@H]2c3[nH]c4ccccc4c3C[C@H]3C(=O)N4[C@@H](c5cc(OC)c(OC)c(OC)c5)c5[nH]c6ccccc6c5C[C@H]4C(=O)N23)cc(OC)c1OC`, the Potency was active: 2.91 µM.
For `CCOC(=O)[C@]12CCC=C1N(Cc1ccc3c(c1)OCO3)C(=O)[C@H](CC(=O)NCC13CC4CC(CC(C4)C1)C3)C2`, the Potency was active: 23.1 µM.
With `CC(NCC(O)c1ccc([N+](=O)[O-])cc1)C12CC3CC(CC(C3)C1)C2` (centres undefined) the Potency was inconclusive [inhibitor, single point].
For `CCOC(=O)c1sc(NC(=O)C2CCCCC2)nc1C`, the Potency was inconclusive [inhibitor, single point].
For `CSc1ccc(CCNS(=O)(=O)c2c(C)[nH]c(C)c2C(=O)N2CCCCC2)cc1`, the Potency was inconclusive [inhibitor, single point].
With `COc1ccc(-c2cc(C(F)F)n3ncc(C(=O)N4CCc5ccccc5C4)c3n2)cc1` the Potency was inconclusive [inhibitor, single point].
In the case of `Cc1ccsc1C1Nc2ccccc2-c2nc3ccccc3n21` (centres undefined), the Potency is reported as inconclusive [inhibitor, single point].
For `CN1OC[C@@H]2CN(C(=O)CCc3ccccc3)[C@H](c3cccc(Oc4ccccc4)c3)C[C@@H]21`, the Potency was inconclusive [inhibitor, single point].
For `COc1ccccc1N1CCN(C(=O)CCNS(=O)(=O)c2cc(Br)cnc2N)CC1`, the Potency was inconclusive [inhibitor, single point].
In the case of `Cc1cc(C)n2nc(C(=O)Nc3c(C)nn(Cc4ccc(F)cc4)c3C)cc2n1`, the “activity change, negative = growth inhibition” value is reported as inactive: -5.17%.
In the case of `CCc1cc(OCCN2C(=O)NC(C)(C)C2=O)ccc1Cl`, the activity change, negative = growth inhibition is reported as inconclusive: -33.2% [inhibitor].
With `O=C(COc1ccc(F)cc1)c1ccc2c(c1)CCCC2` the Potency was inconclusive [inhibitor, single point].
For `Cc1ccc(S(=O)(=O)N2CCOCC2)cc1C(=O)NCCc1ccc(Cl)cc1`, the Potency was inconclusive [inhibitor, single point].
In the case of `Cc1c(CCO)c(=O)[nH]n1S(=O)(=O)c1ccc([N+](=O)[O-])cc1`, the “activity change, negative = growth inhibition” value is reported as inactive: 7.46%.
With `C=CC[C@@]12C=C(OC)C(=O)C(OC)=C1O[C@H](c1ccc3c(c1)OCO3)[C@H]2C` the “activity change, negative = growth inhibition” value was inactive: -17.5%.
For `O=C(c1cc2ccccc2cc1O)N1CCN(c2cccc(Cl)c2)CC1`, the Potency was inconclusive [inhibitor, single point].
For `COc1ccc2[nH]c(=O)c(CN(Cc3ccccc3OC)Cc3nnnn3CC3CCCO3)cc2c1` (centres undefined), the Potency was inconclusive [inhibitor, single point].
For `CCC(C)NC(=O)Cn1c(=O)n(-c2ccc(OC)cc2)c(=O)c2ccc(C(=O)NCc3ccc(C)cc3)cc21` (centres undefined), the “activity change, negative = growth inhibition” value was inactive: -9.73%.
In the case of `NS(=O)(=O)c1ccc(CCNc2ccnc3cc(Cl)ccc23)cc1`, the Potency is reported as active: 14.6 µM.
With `CCC(=O)N1CCc2cc(S(=O)(=O)CCC(=O)N(C)c3ccc(OC)cc3)ccc21` the Potency was “inactive”.
With `CC[C@H](NC(=O)/C=C/[C@H]1O[C@@H](n2cc(C)c(=O)[nH]c2=O)C[C@@H]1O)c1ccccc1` the “activity change, negative = growth inhibition” value was inactive: 3.64%.
For `CC(=O)NC(c1ccccc1)c1nc(/C=C/c2ccccc2)cs1` (centres undefined), the Potency was inconclusive [inhibitor, single point].
In the case of `Cc1cc(C)c2[nH]c(=S)cc(C)c2c1`, the “activity change, negative = growth inhibition” value is reported as inactive: -34.2%.
For `NC(=S)NN=C1c2cc(OCCN3CCOCC3)ccc2-c2ccc(OCCN3CCOCC3)cc21`, the Potency was active: 16.4 µM.
With `COc1ccc(NC(=O)CN2C(=O)NC(C)(c3ccc(C)cc3)C2=O)c([N+](=O)[O-])c1` (centres undefined) the Potency was inconclusive [inhibitor, single point].
For `Clc1ccc2c(c1)Nc1ccccc1CC2`, the Potency was inconclusive [inhibitor, single point].
For `CN(Cc1ccccc1)C(=O)CSc1nc2c(c(C(F)(F)F)n1)CCc1ccccc1-2`, the Potency was inconclusive [inhibitor, single point].
For `C#Cc1cccc(C(=O)NC2CCCN(C3Cc4ccccc4C3)C2)c1` (centres undefined), the Potency was inconclusive [inhibitor, single point].
In the case of `Clc1cccc(Cl)c1COn1nnc2ccccc21`, the Potency is reported as inconclusive [inhibitor, partial curve].
In the case of `COc1ccc(NC(=S)N(Cc2ccc(N(C)C)cc2)Cc2ccco2)cc1`, the Potency is reported as inconclusive [inhibitor, single point].
For `CCOc1ccc(Nc2ncnc(N)n2)cc1`, the Potency was inconclusive [inhibitor, full curve, poor fit].
With `CCN(Cc1ccccc1)C(=O)Cn1c(C(C)O)nc2ccccc21` (centres undefined) the “activity change, negative = growth inhibition” value was inactive: 7.23%.
With `O=C(NCc1ccc(F)cc1)C1CCN(S(=O)(=O)c2ccc3c(c2)OCCCO3)CC1` the Potency was inconclusive [inhibitor, single point].
For `O=C(c1ccc2c(=O)n3c(nc2c1)CCCCC3)N1CCN(C(c2ccccc2)c2ccccc2)CC1`, the Potency was inconclusive [inhibitor, single point].
In the case of `COc1ccc(C(=O)NNC(=O)C(Cc2ccc(O)cc2)NC(=O)c2ccccc2NC(=O)c2ccc(OC)cc2)cc1` (centres undefined), the Potency is reported as inconclusive [inhibitor, single point].
For `CC(=O)N1CCN(C(=O)c2ccc(-c3cccc(C(F)(F)F)c3)o2)CC1`, the Potency was inconclusive [inhibitor, single point].
With `CCCN(S(=O)(=O)c1ccc(OCC)cc1)S(=O)(=O)c1cccs1` the Potency was inconclusive [inhibitor, partial curve].
In the case of `O=C(c1cc(=O)[nH]c2ccccc12)N1CCN(c2ccc([N+](=O)[O-])cc2)CC1`, the Potency is reported as inconclusive [inhibitor, single point].
For `CCc1ccc(S(=O)(=O)c2cn(C)c3cc(N4CCN(CC)CC4)c(F)cc3c2=O)cc1`, the Potency was inconclusive [inhibitor, single point].
With `CCCc1c(C)[nH]c2nc3ccccc3n2c1=O` the Potency was inconclusive [inhibitor, partial curve].
With `CCOC(=O)c1cnc(-n2nc(C)cc2C)nc1NC(C)c1ccccc1` (centres undefined) the Potency was active: 4.61 µM.
For `C=CCSc1nc2sc(-c3ccccc3)cc2c(=O)n1N`, the Potency was inconclusive [inhibitor, single point].
In the case of `COc1cc(/C=C(\C#N)c2ccccn2)ccc1OCC(=O)Nc1ccc(Br)cc1`, the “activity change, negative = growth inhibition” value is reported as inactive: -1.55%.
For `CCN(CC(=O)NCc1ccc(Cl)cc1)Cc1cc(=O)n2ccsc2n1`, the “activity change, negative = growth inhibition” value was inactive: -24.5%.
For `COC(=O)C1CCN(C(=O)c2cc3ccccc3oc2=O)CC1`, the “activity change, negative = growth inhibition” value was inactive: 11.8%.
With `CC(C)NS(=O)(=O)c1ccc(OCC(=O)N2CCN(c3ccccc3F)CC2)cc1` the Potency was active: 14.6 µM.
With `O=C(c1cc(COc2cccc3cnccc23)on1)N1CCC(c2ccccc2Cl)C1` (centres undefined) the Potency was active: 18.4 µM.
In the case of `C=CCn1c(SCC(=O)N2CCN(c3ccc(F)cc3)CC2)nnc1-c1ccco1`, the Potency is reported as inconclusive [inhibitor, partial curve].
For `COc1ccc(/C=C(\C#N)C(=O)NCCc2ccccc2)cc1OCc1ccccc1`, the Potency was active: 16.4 µM.
With `Cc1cccc(C(=O)NC2C(=O)NNC2c2ccc(Cl)cc2)c1` (centres undefined) the Potency was inconclusive [inhibitor, single point].
In the case of `CSc1cccc(NC(=O)c2ccc3c(c2)c(C)c(C)n3Cc2ccc(F)cc2)c1`, the Potency is reported as inconclusive [inhibitor, single point].
For `CCC(Sc1nc(C)cc(=O)[nH]1)C(=O)Nc1sc2c(c1C#N)CCCC2` (centres undefined), the Potency was active: 16.4 µM.
With `O=c1cc(-c2ccccc2)cc(-c2ccccc2)n1CCCO` the Potency was inconclusive [inhibitor, partial curve, poor fit].
In the case of `N#CCSc1nc2ccccc2o1`, the “activity change, negative = growth inhibition” value is reported as inactive: -7.26%.
For `Cc1ccc(CSCC(=O)Nc2ccccc2C(=O)O)cc1`, the Potency was inconclusive [inhibitor, partial curve].
With `CC(Sc1nncn1C)C(=O)Nc1ccc(N2CCCCC2)cc1` (centres undefined) the “activity change, negative = growth inhibition” value was inactive: 13.6%.
In the case of `COc1ccc2c(c1)C(=O)C1NC(=O)NC(=O)C1(Br)N2` (centres undefined), the “activity change, negative = growth inhibition” value is reported as inactive: -1.88%.
With `COc1ccccc1-c1c(C)nn2c(C(F)(F)F)cc(-c3ccccc3)nc12` the Potency was inconclusive [inhibitor, single point].
For `O=C(NNC(=O)c1ccccc1O)c1ccc(Cl)cc1`, the Potency was active: 16.4 µM.
For `COc1ccc(CN(C)C(=O)Cn2cnc3c(NCc4ccccc4)ncnc32)cc1OC`, the Potency was inconclusive [inhibitor, single point].
In the case of `O=C(c1ccc(N2CCC(NCCCn3ncc4ccccc43)CC2)cc1)N1CCc2ccccc2C1`, the Potency is reported as inconclusive [inhibitor, single point].
